Reference: PubChem BioAssay AID624417 (National Center for Advancing Translational Sciences (NCATS), 2012)
Out of some 410,000 compounds screened, about 6,400 (1.6%) were called active. The shares of active, inactive and inconclusive entries below differ from those in the screen. The call rests on the fitted dose curve; in most records, active means well fitted inhibition curve with a large enough effect; inconclusive means small, poorly fitted or top-dose-only effect; inactive means no such curve, though single readings can be large or run the other way. Potencies of inconclusive entries are left out as doubtful fits.
Further: nearly all actives have a fitted effect of over 55% in size.
Potency means the concentration at half of the fitted maximal effect; tags describe the fitted curve by direction and shape.

The compounds below were run against Glucagon-like peptide 1 receptor (Homo sapiens) (UniProt P43220) (assay: qHTS of GLP-1 Receptor Inverse Agonists (Inhibition Mode)). Details: HEK293 GLP-1R CRE-luciferase, luminescence, 24 h, GLP-1R form is constitutively active; series mostly up to 38.3 µM.
Sequence of UniProt P43220 (P43220 whole entry, looked up): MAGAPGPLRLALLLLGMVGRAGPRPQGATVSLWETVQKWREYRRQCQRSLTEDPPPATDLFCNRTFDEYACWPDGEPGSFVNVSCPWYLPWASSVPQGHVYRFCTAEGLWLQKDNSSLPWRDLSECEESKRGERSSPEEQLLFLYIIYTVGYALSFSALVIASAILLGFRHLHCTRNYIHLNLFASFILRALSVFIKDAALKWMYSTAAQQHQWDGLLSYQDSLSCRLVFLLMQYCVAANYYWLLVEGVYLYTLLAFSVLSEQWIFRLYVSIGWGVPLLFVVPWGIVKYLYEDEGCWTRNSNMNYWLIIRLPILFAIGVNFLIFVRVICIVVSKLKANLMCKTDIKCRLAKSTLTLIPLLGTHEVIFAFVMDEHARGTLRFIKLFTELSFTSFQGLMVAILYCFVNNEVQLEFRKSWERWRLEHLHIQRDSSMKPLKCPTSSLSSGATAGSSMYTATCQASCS
How it was run: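 Seeding at 200 cells/uL, 12 h culture, 24 hr compound treatment, then luciferase reagent and a luminescence read; cells are HEK293 stably expressing a constitutively active GLP-1R plus cAMP-responsive luciferase.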
For `O=C(NCc1ccccc1)c1ccc(S(=O)(=O)N2CCCCCC2)cc1`, the Potency was inconclusive [inhibitor, single point]. For `CC(C)C(c1nnnn1C1CCCCC1)N1CCCc2ccccc21` (stereo not given), the Potency was inconclusive [inhibitor, partial curve, poor fit]. For `COc1ccc(N2C(=O)CC(N(CCc3ccc(S(N)(=O)=O)cc3)C(=S)Nc3ccccc3)C2=O)cc1` (stereo not given), the Potency was inconclusive [inhibitor, partial curve, poor fit]. With `CN(CCOc1ccccc1)C(=S)Nc1ccc(OC(F)F)cc1` the Potency was inconclusive [inhibitor, single point]. In the case of `Cc1ccccc1OCCCCc1c(C)n[nH]c1C`, the Potency is reported as “inactive”. For `CCN(CCNC(=O)C1CCN(S(=O)(=O)c2c(C)noc2C)CC1)c1ccccc1`, the Potency was inconclusive [inhibitor, single point]. In the case of `COc1ccc(C2=C(C)C(N3CCC(C(=O)Nc4ccc(F)cc4C)CC3)=NS2(=O)=O)cc1`, the Potency is reported as “inactive”. With `CC1(C)OC(=O)C2=C(CC(c3ccccc3)OC2CCc2ccccc2)O1` (stereo not given) the Potency was inconclusive [inhibitor, partial curve, poor fit]. For `CCOc1cccc(-c2c(C(=O)N/N=C/c3sccc3C)nnn2-c2nonc2N)c1`, the Potency was inconclusive [inhibitor, partial curve, poor fit]. `CCCc1nc2c3ccccc3ccn2c1Cc1ccc(C)cc1` was tested, and the Potency was inconclusive [inhibitor, single point]. With `Cc1nc2ccccc2c2oc(C(=O)NCCN3CCCCC3C)cc12` (stereo not given) the Potency was inconclusive [inhibitor, single point]. `Cc1ccc(C)c(/C=N/Nc2ccccn2)c1` was tested, and the Potency was “inactive”. In the case of `CCNC(=S)N=Nc1c(O)[nH]c2ccc(C(C)C)cc12`, the Potency is reported as inconclusive [inhibitor, partial curve, poor fit]. With `COc1cccc(C(=O)NCCS(=O)(=O)NC(C)CCc2ccccc2)c1` (stereo not given) the Potency was inconclusive [inhibitor, single point]. With `CCOc1ccccc1OCC(=O)Nc1cccc(S(=O)(=O)N2CCCCCC2)c1` the Potency was inconclusive [inhibitor, single point]. `CS(=O)(=O)c1ccc(NCCc2ccc(S(N)(=O)=O)cc2)c([N+](=O)[O-])c1` was tested, and the Potency was “inactive”. In the case of `COc1ccc(Nc2oc(-c3ccccc3Cl)nc2C#N)cc1`, the Potency is reported as inconclusive [inhibitor, full curve, poor fit]. For `CCN(CC)CCCNC(=S)N1CCN(c2nc(-c3ccc(F)cc3)cs2)CC1`, the Potency was inconclusive [inhibitor, partial curve, poor fit]. `COc1ccc(S(=O)(=O)n2nc(C)c(S(=O)(=O)N3CCC(C)CC3)c2C)cc1OC` was tested, and the Potency was “inactive”. With `CC(C)c1c(C(=O)N/N=C/c2ccccc2OCc2c(F)cccc2Cl)nnn1-c1nonc1N` the Potency was inconclusive [inhibitor, full curve, poor fit]. `CC1(C(=O)Nc2cnc3ccccc3c2)CCN1C(=O)c1ccccc1CCc1ccccc1` (stereo not given) was tested, and the Potency was inconclusive [inhibitor, single point]. For `CCc1ccccc1NC(=O)c1ccc2nc(C(C)C)oc2c1`, the Potency was inconclusive [inhibitor, partial curve, poor fit]. For `Cc1ccc(N(CC(=O)Nc2ccc(Br)cc2)S(=O)(=O)c2cccs2)cc1`, the Potency was “inactive”. `COC(=O)C1=CN(c2ccc(OC)cc2)C=C(C(=O)OC)C1c1cccc(F)c1` was tested, and the Potency was inconclusive [inhibitor, single point]. `Cc1ccc(C)c(SCC(=O)Nc2cc(S(=O)(=O)N3CCOCC3)ccc2C)c1` was tested, and the Potency was inconclusive [inhibitor, partial curve, poor fit]. In the case of `CCc1nc2ccc(C(=O)NCc3cccs3)cn2c1N(C)Cc1nccs1`, the Potency is reported as “inactive”. With `COc1ccc(-c2coc3c(C(=O)NCC(C)C)cccc23)c(C)c1` the Potency was inconclusive [inhibitor, single point]. `CCCSc1ccc([C@@H]2[C@H]3C(=O)N(CC)C(=O)[C@H]3[C@]3(C(=O)OC)CCCCN23)cc1` was tested, and the Potency was inconclusive [inhibitor, partial curve]. In the case of `CCOc1ccc(CNS(=O)(=O)c2cc3c(cc2C)NC(=O)CO3)cc1`, the Potency is reported as “inactive”. `OC(COCc1ccc(Cl)cc1)CN1CCN(CC(O)COCc2ccc(Cl)cc2)CC1` (stereo not given) was tested, and the Potency was inconclusive [inhibitor, full curve, poor fit]. `CCOC(=O)c1ccc(-n2c(C)ccc2C)cc1` was tested, and the Potency was “inactive”. `CN1CCN(C(=O)c2ccc3c(=O)n(Cc4ccc(Cl)cc4)c(=S)[nH]c3c2)CC1` was tested, and the Potency was inconclusive [inhibitor, partial curve]. In the case of `Cc1c(C(=O)NCCSCc2ccc(F)cc2)cnn1-c1ccc(Cl)cc1`, the Potency is reported as inconclusive [inhibitor, partial curve, poor fit]. In the case of `O=C(Nc1cc(S(=O)(=O)N2CCCCC2)ccc1Cl)C1COc2ccccc2O1` (stereo not given), the Potency is reported as inconclusive [inhibitor, single point]. With `CC(Sc1nc(N2CCCCC2)c2c(c1C#N)CCCC2)C(=O)O` (stereo not given) the Potency was inconclusive [inhibitor, partial curve, poor fit]. In the case of `c1cc2c(cc1CN1CCN(C3CCCCCC3)CC1)OCO2`, the Potency is reported as “inactive”. `O=C(Cn1cnc2c(NCc3ccccc3)ncnc21)NCCCN1CCCC1=O` was tested, and the Potency was “inactive”. For `CN(C)S(=O)(=O)N1CCC(Oc2cccc(C(=O)NC3CCCCCC3)c2)CC1`, the Potency was inconclusive [inhibitor, partial curve, poor fit]. For `CN1CCN(c2ncc3c(n2)CCN(Cc2cc(Br)cs2)C3)CC1`, the Potency was inconclusive [inhibitor, partial curve, poor fit]. With `Cc1cc(C)n(-c2nc3ccccc3c(=O)n2OC2CCCCC2)n1` the Potency was inconclusive [inhibitor, single point]. `C=CCSC1=C(C#N)C(c2ccccc2Cl)C(C(=O)c2cccs2)C(O)(C(F)(F)F)N1` (stereo not given) was tested, and the Potency was inconclusive [inhibitor, partial curve, poor fit]. For `C=CCOCCN1C(=O)C2C(c3ccccc3)C=CC(c3ccccc3)C2C1=O` (stereo not given), the Potency was inconclusive [inhibitor, single point]. For `Nc1nc(SCc2ccccc2[N+](=O)[O-])c2ncn(Cc3ccccc3)c2n1`, the Potency was inconclusive [inhibitor, partial curve, poor fit]. With `CCOc1ccc(-c2cnc(NCc3ccc(C(F)(F)F)cc3)n2C)cc1` the Potency was inconclusive [inhibitor, single point]. With `CCN(CCO)C(=O)CC(c1ccccc1)c1cc(Br)ccc1O` (stereo not given) the Potency was inconclusive [inhibitor, single point]. `CCN1C(=O)c2ccccc2Sc2ccc(NC(=O)COc3ccc(Cl)cc3)cc21` was tested, and the Potency was inconclusive [inhibitor, single point]. With `Nc1ncnc2c1C1(CCCCC1)Cc1ccccc1-2` the Potency was inconclusive [inhibitor, single point]. `Cc1ccc(/C=N/NC(=O)c2ccc(NC(=O)c3ccccc3Cl)cc2)o1` was tested, and the Potency was inconclusive [inhibitor, single point]. For `CC(=O)Nc1ccc(Oc2sc(C(=O)c3ccccc3)c(N)c2C#N)cc1`, the Potency was inconclusive [inhibitor, single point]. `CCOc1ccc(N=Cc2ccc3ccccc3c2)cc1` was tested, and the Potency was “inactive”. In the case of `O=C(CC1SC(=Nc2ccc(OC(F)F)cc2)N(CCN2CCOCC2)C1=O)Nc1ccccc1` (stereo not given), the Potency is reported as active: 10 µM. With `O=C(Nc1ccc(N2CCN(C(=O)c3ccco3)CC2)cc1)C(c1ccccc1)c1ccccc1` the Potency was inconclusive [inhibitor, full curve, poor fit]. For `COC(=O)c1cn(CCOc2ccc(C)cc2)c2ccccc12`, the Potency was inconclusive [inhibitor, single point]. For `CCOC(=O)c1c(C)[nH]c(C(=O)C(C)OC(=O)c2cccc(OCc3c(C)noc3C)c2)c1C` (stereo not given), the Potency was inconclusive [inhibitor, partial curve, poor fit]. With `Cc1ccc2c(CC(=O)Nc3cccc(Cl)c3C)coc2c1` the Potency was “inactive”. In the case of `O=C(CCCc1ccccc1)NCc1ccccc1Cl`, the Potency is reported as inconclusive [inhibitor, single point]. In the case of `COc1c(C)cc(C(=O)C2CCCN(C(=O)c3ccc4cc[nH]c4c3)C2)cc1C` (stereo not given), the Potency is reported as inconclusive [inhibitor, partial curve, poor fit]. `Cc1nn2c(NCc3cccnc3)c3c(nc2c1-c1ccccc1)CCC3` was tested, and the Potency was inconclusive [inhibitor, full curve]. With `Cc1cccc(OCCCCn2c(C3CC(=O)N(c4ccccc4Cl)C3)nc3ccccc32)c1` (stereo not given) the Potency was “inactive”. `CCN1CCCC1CNC(=O)c1[nH]c2ccc(OC)cc2c1C` (stereo not given) was tested, and the Potency was inconclusive [inhibitor, partial curve, poor fit]. In the case of `O=C(O)c1cccc(S(=O)(=O)Nc2ccccc2-c2ccccc2)c1`, the Potency is reported as “inactive”. `Cc1cc(NC(=O)COC(=O)c2c(C)noc2C)ccc1Br` was tested, and the Potency was inconclusive [inhibitor, single point]. In the case of `COc1ccc(CCNC(=O)Cc2nn(C)c(=O)c3ccccc23)cc1OC`, the Potency is reported as “inactive”. With `Cc1onc(-c2ccccc2Cl)c1C(=O)NC(=S)Nc1ccc(C(C)C)cc1` the Potency was active: 3.98 µM. `CC(=O)Nc1ccc(CN2CCCC(CO)(Cc3cccc(Cl)c3)C2)cc1` (stereo not given) was tested, and the Potency was inconclusive [inhibitor, partial curve, poor fit].
